What all share (experiment): Viability of human cancer cell lines after 72 h of drug (GDSC screen)
Compound in experiment [1]: CCCC(=O)OCc1ccc(OC(=O)/C=C(C)/C=C/C=C(C)/C=C/C2=C(C)CCCC2(C)C)cc1 [VNLG/124]
Conditions: top dose 5.12 µM; top dose inferred. How it is done:
(§1)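 Human cancer cell lines in 384-well plates, medium with 10% serum, drug for 72 h over a 256-fold dose range (nine 2-fold or five 4-fold steps up to the top dose). Adherent lines were fixed and stained with the nucleic acid dye Syto60, suspension lines read with resazurin; signal relative to control wells, capped at 0 and 100%. One two-parameter sigmoid per drug and line, fitted in a mixed model over all curves with the slope shared within a line.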

Compound in experiment [2]: COc1cc(N2CCC(C(N)=O)CC2)ccc1Nc1nc(N)c(Cl)c(Nc2ccccc2S(=O)(=O)C(C)C)n1 [HG-5-88-01]
Conditions: top dose 10 µM; top dose inferred. On the procedure:
as §1

Compound in experiment [3]: O=C(/C=C/c1ccc(CN(CCO)CCc2c[nH]c3ccccc23)cc1)NO [LAQ824]
Conditions: top dose 1.024 µM; top dose inferred. On the procedure: as §1

Compound in experiment [4]: O=C(Nc1cccc(Nc2ncc(Br)c(NCCc3cnc[nH]3)n2)c1)N1CCCC1 [BX-912]
As to conditions: top dose 10.24 µM; top dose inferred. How it is done: as §1

Compound in experiment [5]: O=C(Nc1ccc(OC(F)(F)F)cc1)c1sccc1NCc1ccnc2ccccc12 [OSI-930]
Conditions: top dose 10.24 µM. On the procedure: as §1

Compound in experiment [6]: CC/C(=C(\c1ccccc1)c1ccc(OCCN(C)C)cc1)c1ccccc1 [Tamoxifen]
As to conditions: top dose 5 µM. How it is done:
as §1

Compound in experiment [7]: Cc1ccc(NC(=O)c2ccc(CN3CCN(C)CC3)cc2)cc1Nc1nc(-c2cccnc2)cs1 [Masitinib]
As to conditions: top dose 20 µM. How it is done:
as §1

Compound in experiment [8]: Cc1c(N)nc([C@H](CC(N)=O)NC[C@H](N)C(N)=O)nc1C(=O)N[C@H](C(=O)N[C@H](C)[C@@H](O)[C@H](C)C(=O)N[C@H](C(=O)NCCc1nc(-c2nc(C(=O)NCCC[S+](C)C)cs2)cs1)[C@@H](C)O)[C@@H](OC1OC(CO)C(O)C(O)C1OC1OC(CO)C(O)C(OC(N)=O)C1O)c1cnc[nH]1 [Bleomycin]
How it is done:
as §1

Compound in experiment [9]: O=S(=O)(O)c1ccc2cc(N=Nc3cc(S(=O)(=O)O)c4cccnc4c3O)ccc2c1 [NSC-87877]
As to conditions: top dose 16 µM; top dose inferred. How it is done: as §1

Compound in experiment [10]: CN(NC(=O)CC(=O)NN(C)C(=S)c1ccccc1)C(=S)c1ccccc1 [Elesclomol]
Conditions: top dose 0.2 µM; top dose inferred. On the procedure:
as §1

Where [11] appears, read: top dose 50 µM, screen: GDSC drug entry 1378, top dose inferred.
The mark [12] stands for this setting: top dose 64 µM, screen: GDSC drug entry 190.

pIC50: −log10 of the molar value. By IC50 is meant the dose at which the fit gives 50% viability; a limit (>, <) means that the fit lies beyond the doses tested. AUC, from the same fit, is the share of area under the viability curve across the 256-fold dose range; the more sensitive the line, the further below 1. For part of these data: Where the top dose is marked as inferred, it comes from the curve model; the source does not state it. For part of these data: An entry number marks a drug with two screens in the source, which often give different values.

The results in this text go back to the supplement of paper PMC4967469.

As for “RPMI-8402 (T-cell lymphoblastic leukaemia, suspension)”, the AUC came to 0.975 in [1]; 0.971 in experiment [2]; 0.215 in experiment [3]; 0.278 in experiment [4]; 0.893 in experiment [5]; 0.968 in experiment [6]. Besides, the AUC was 0.814 in [7]; 0.891 in [8] (setting [11]); 0.781 in experiment [8] (setting [12]); 0.98 in [9]; 0.865 in experiment [10]. In addition, the pIC50 in [1] is < 5.29; in experiment [2], < 5.00; in experiment [3] it was 7.95; in experiment [4], 6.77; in experiment [5], 5.06; in [6], < 5.30. The pIC50 is 5.06 in experiment [7]; 4.38 in experiment [8] (setting [11]); 4.65 in experiment [8] (setting [12]); < 4.80 in experiment [9]; 6.88 in [10].

Take H2369 (mesothelioma, adherent): the AUC was found to be 0.983 in experiment [1]; 0.972 in experiment [2]; 0.265 in experiment [3]; 0.969 in experiment [4]; 0.977 in experiment [5]; 0.982 in experiment [6]. For the same cell line, the AUC in [7] was 0.97; in experiment [8] (setting [11]), 0.636; in experiment [8] (setting [12]) it was 0.436; in experiment [9], 0.847; in experiment [10], 0.421. Further, the pIC50 in experiment [1] was < 5.29; in experiment [2], < 5.00; in experiment [3], 7.88; in [4] it was < 4.99; in [5], < 4.99; in experiment [6] it was < 5.30. The pIC50 in experiment [7] is < 4.70; in experiment [8] (setting [11]), 5.12; in experiment [8] (setting [12]), 5.58; in [9], 4.91; in [10], 8.12.

Take KELLY (neuroblastoma, adherent): the AUC in [1] amounted to 0.958; in experiment [2] it was 0.953; in [3], 0.487; in experiment [4], 0.912; in experiment [5], 0.973; in [6] it was 0.986. For the same cell line, the AUC is 0.881 in experiment [7]; 0.59 in experiment [8] (setting [11]); 0.804 in [8] (setting [12]); 0.982 in [9]; 0.469 in [10]. Besides, the pIC50 is < 5.29 in experiment [1]; < 5.00 in [2]; 7.23 in [3]; < 4.99 in experiment [4]; < 4.99 in experiment [5]; < 5.30 in experiment [6]. The pIC50 was 4.75 in experiment [7]; 5.27 in experiment [8] (setting [11]); 4.55 in experiment [8] (setting [12]); < 4.80 in experiment [9]; 7.98 in [10].

On to Hs939-T (melanoma, adherent), for which the AUC in [1] worked out at 0.977; in [2] it was 0.879; in experiment [3] it was 0.527; in experiment [4], 0.986; in [5], 0.978; in [6], 0.98. For the same cell line, the AUC worked out at 0.983 in [7]; 0.724 in [8] (setting [11]); 0.847 in [8] (setting [12]); 0.969 in experiment [9]; 0.471 in experiment [10]. Also, the pIC50 is < 5.29 in experiment [1]; < 5.00 in experiment [2]; 7.12 in [3]; < 4.99 in experiment [4]; < 4.99 in [5]; < 5.30 in experiment [6]. Further, the pIC50 in experiment [7] is < 4.70; in [8] (setting [11]), 4.84; in [8] (setting [12]) it was 4.27; in [9], < 4.80; in experiment [10], 7.98.

On to ESS-1 (endometrium, adherent), for which the AUC worked out at 0.988 in experiment [1]; 0.972 in experiment [2]; 0.344 in experiment [3]; 0.901 in experiment [4]; 0.98 in experiment [5]; 0.989 in experiment [6]. For the same cell line, the AUC in experiment [7] was determined as 0.864; in experiment [8] (setting [11]) it was 0.168; in experiment [8] (setting [12]) it was 0.111; in [9], 0.99; in experiment [10] it was 0.658. Also, the pIC50 in experiment [1] is < 5.29; in experiment [2], < 5.00; in [3], 7.61; in experiment [4] it was < 4.99; in experiment [5], < 4.99; in experiment [6], < 5.30. The pIC50 was 4.84 in experiment [7]; 6.45 in experiment [8] (setting [11]); 6.57 in experiment [8] (setting [12]); < 4.80 in experiment [9]; 7.49 in [10].

As for GB-1 (glioma, adherent), the AUC in experiment [1] was found to be 0.972; in experiment [2], 0.923; in [3], 0.378; in [4], 0.939; in experiment [5] it was 0.977; in experiment [6], 0.971. Besides, the AUC in experiment [7] was 0.951; in experiment [8] (setting [11]) it was 0.616; in experiment [8] (setting [12]) it was 0.244; in experiment [9] it was 0.972; in experiment [10], 0.41. For the same cell line, the pIC50 in experiment [1] is < 5.29; in experiment [2], < 5.00; in experiment [3] it was 7.56; in experiment [4] it was < 4.99; in experiment [5] it was < 4.99; in experiment [6], < 5.30. The pIC50 is < 4.70 in [7]; 5.16 in [8] (setting [11]); 6.20 in experiment [8] (setting [12]); < 4.80 in experiment [9]; 8.17 in experiment [10].

For orientation: pIC50 means the IC50 on a negative log10 scale, so that one unit is a factor of ten.
